Measured values reported in PMC12136788.
This is one part of the list.

T1: UNK ZnF1-3 (human, UniProt Q9C0B0 31-174)
T1 sequence: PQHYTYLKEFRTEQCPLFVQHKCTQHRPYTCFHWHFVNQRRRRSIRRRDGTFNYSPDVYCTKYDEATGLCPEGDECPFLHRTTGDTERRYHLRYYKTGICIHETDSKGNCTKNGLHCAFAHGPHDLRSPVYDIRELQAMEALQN

B1: chr1:226549179:226549180:-_ENSG00000143799_ENST00000366794|hu_mus|FALSE|FALSE (ssRNA)
RNA: GGGAGUUCUACAGUCCGACGAUCGGCCCUGGGUGCUGGGCACAGCCCACCCCUCGCACUUUACCACAGGGAUGUCUUAAAAUUGAACUUGAGUUUCAGCAGGUAUUUGAGAUUCACCUGAGCAAUGUCGUAGACAAUGUACUCCAACAGAGGAUUGAGCAUCA
B2: 113288042_113288162_3055_3pUTR_ENSG00000114999_ENST00000233336|human|control|control (ssRNA)
RNA: GGGAGUUCUACAGUCCGACGAUCCAGAACCCUACACGUUCUAACUGGGUAUACAUCUUCCCAGGAUCCGAUCAGAUCUCACUCCCAUCUCAGAAUUUCCCAAACACCAACCCAUCGGCUGCGUUGGGCCUCAAGGAUUAAUGACAACAGAGGAUUGAGCAUCA
B3: 29137040_29140844_828_3pUTR_ENSG00000163811_ENST00000407426|human|control|control (ssRNA)
RNA: GGGAGUUCUACAGUCCGACGAUCACAAAGUUAAGUCAAUAUAGACAGGUUCAUCGGUAACUGUAAAUGACAUCACUGCACUCUUUUCUUUGUUUUCUGAUCGGACCUGCCAGACAUUAAGUAACCGGUCAUGUACUGCUCCAGCAACAGAGGAUUGAGCAUCA
B4: chr4:140556289:140556290:+_ENSMUSG00000036622_ENSMUST00000037055|mus_mus|mus_mus_mus_hu_False|58_68 (ssRNA)
RNA: GGGAGUUCUACAGUCCGACGAUCGAUGGAGCUCACCAGGCCCCCUUUUGCCGUGCAGAACCCUGUGCGAGUCACCACUGCUAGCACGUGCGGUCCCACAUAGGCCCGGGCCUGCAAGAUGAGGGUCCCGCAGAAGAGUGUGUGCAACAGAGGAUUGAGCAUCA
B5: chr13:100201082:100201083:-_ENSMUSG00000052727_ENSMUST00000064762|mus_hu|FALSE|FALSE (ssRNA)
RNA: GGGAGUUCUACAGUCCGACGAUCAAGAUCAUUAUCUUGGGUGUAGGACGGCUCCUCCAUAGGUGGUAUCUUAUGUGAUAAACUGGAGUCCUGCAUGUCAGAAGGACUGUAGUCCACUUCAGUUGGCCCAUUUUCAGUGAUGUGCAACAGAGGAUUGAGCAUCA
B6: chr17:65740002:65740003:+_ENSG00000130935_ENST00000581375|hu_hu|hu_hu_hu_mus_False|68_68 (ssRNA)
RNA: GGGAGUUCUACAGUCCGACGAUCAACAAAUCUUUCUUCCCUGGACGAACAGGAAGAUUCAUAUUAACUUUAUAAAAUAUCCAUCAAGUUAGGUGUGGUGGCCACACCUUUACUCCCAGCACUUUGGGAGGUGGAUCUCUGAGUCAACAGAGGAUUGAGCAUCA
B7: 64081242_64081362_2382_3pUTR_ENSMUSG00000025959_ENSMUST00000114086|mouse|control|control (ssRNA)
RNA: GGGAGUUCUACAGUCCGACGAUCUUUAAGCUUCCAAAUAAGCUUUUUUUUUUUUUUCAAGUUUUCAUUAGCAAAAAAUCAGAGAGAUUUAAAAAGAAAAAAUCUAGCACUGGCAAGAAGGUGAGGCUCAAGGGGUAUACUGUGCAACAGAGGAUUGAGCAUCA
B8: chr19:7360422:7360423:-_ENSMUSG00000024969_ENSMUST00000032557|mus_mus|motif|central (ssRNA)
RNA: GGGAGUUCUACAGUCCGACGAUCAUAAGGAGGACUGCCACAGAAAGUAUCCAGCUUGUUCCCAAAGGUGAAUUCGUUGCGGAAGCCAAAGUCUGCAAUCUUGAUGUUCAUAUCAGCAUCCAGGAGCAGGUUUUCUGCCUUUAGCAACAGAGGAUUGAGCAUCA
B9: chr8:95500983:95500984:-_ENSG00000164944_ENST00000437199|hu_hu|hu_hu_hu_mus_True|58_88 (ssRNA)
RNA: GGGAGUUCUACAGUCCGACGAUCAGAACACAUCUAUCGAGUAAAGGGAGCGUACAUACGGCCUCUACCACUGCCUCCCACUAACAACUUUCCUCUCGAGCCUCCACUGCCGCUAUUUGUACUAGCCCAGGACGGUCCCAGGCCCAACAGAGGAUUGAGCAUCA
B10: 20809958_20810078_1146_3pUTR_ENSG00000196678_ENST00000357967|human|control|control (ssRNA)
RNA: GGGAGUUCUACAGUCCGACGAUCUGAACAGUUGGAACGGUGGUAGAAACAAGUACCAAUUCUGAACCAACUGUUGAAGCCUUAGAUUUGGUAUUAAAUGCAAGAUGUUCAUUUUUUCCUUGCUUUUGCAUAUAGAUAGGUGAACAACAGAGGAUUGAGCAUCA
B11: chr1:235599081:235599082:+_ENSG00000116957_ENST00000366601|hu_mus|motif|central (ssRNA)
RNA: GGGAGUUCUACAGUCCGACGAUCAGAUCUGCUAUAAGGCUCAGCUGGCUUUCAUCAAUUGAUGGGUUGGAGGAAAGGUCGGGUAACCUCAUUUUCUGCAGGACAUUCACUGGCCUUUCAGAAAUGGAAAUAUUGUUAGACUUGCAACAGAGGAUUGAGCAUCA
B12: 47823176_47823296_171_CDS_ENSG00000173473_ENST00000254480|human|control|control (ssRNA)
RNA: GGGAGUUCUACAGUCCGACGAUCGCCCCCAUCCUUCCGUCGAUAAACAGCUAGGCCUGCGGCUGCCGCCGCAAUCCCCGAGCCCGUGGCGCCUACCGCUGUCCCCGGCCCGCCGCCGCCCGCCGCUGCGGCCAUCGUCGCAGCCAACAGAGGAUUGAGCAUCA
B13: chr15:66840984:66840985:+_ENSG00000174442_ENST00000446801|hu_hu|FALSE|FALSE (ssRNA)
RNA: GGGAGUUCUACAGUCCGACGAUCCUAUUUUUUAAGUUUUCCCAAUACAGUUAAAGCUUUUGGGAUAAAGCUGUAUUUACUAAAAUGAUCCUGUUCUCAUUUGUGGUGCUCGUUCUCUUUGUCAUUUCAGAGCCCUUGCUAAGUCAACAGAGGAUUGAGCAUCA
B14: chrX:98862621:98862622:+_ENSMUSG00000034160_ENSMUST00000044475|mus_hu|mus_mus_mus_hu_False|28_48 (ssRNA)
RNA: GGGAGUUCUACAGUCCGACGAUCCUGCAUCUCCUUUAGAGUGUUUCCCAUAUUAGAGUAGGCAUCAGCAAAGGUAGGACUGAUUCGUAUGGCUUCUUUAUAAUGCAUCAGUGCUUCCUGCAGUUUUCCCUGCUGCUGCAGUACCAACAGAGGAUUGAGCAUCA

molecular target: T1, UNK ZnF1-3; assay: nsRBNS (natural sequence RNA bind-n-seq); RBNS binding buffer (assumed for nsRBNS): 25 mM Tris pH 7.5, 150 mM KCl, 3 mM MgCl2, 0.01% Triton X-100, 500 ug/ml BSA, 20 U/ml SUPERase-In, 4 C; UNK is unkempt and MSI1 is Musashi-1; names of the RNAs are library labels; protein concentration not given here; high values mean tight binding

Binder	binding signal [enrichment R]
B1	1.22
B2	0.348
B3	0.912
B4	0.907
B5	0.832
B6	0.704
B7	2.13
B8	0.865
B9	1.51
B10	0.692
B11	1.26
B12	1.65
B13	0.693
B14	0.901
